The record followed here is the supplement of paper PMC11417369.

± gives the standard deviation of the averaged measurements. This is one part of the list.

The assay relates to PfAP2-I AP2 domain 3 (GST-tagged). The assay can be described thus: gcPBM binding intensity (ln(normalized median fluorescence intensity)); higher = stronger DNA binding. In outline:
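GST-tagged P. falciparum DNA-binding domains, expressed in E. coli (about 25 μg on average), were applied for 1 h to an Agilent 4 × 180k array of primer-extended double-stranded 36-bp intergenic genomic probes plus negative controls. The binding buffer was 1× PBS with 1% milk, 0.2 mg/ml BSA, 0.5% salmon testes DNA and 0.03% Triton X-100. Bound protein was detected with Alexa488 anti-GST antibody and scanned at 488 nm. Binding intensity is the highest Masliner-normalised natural-log median intensity across replicate spots of either probe orientation.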
Regarding “ATATATATATATATATGTACTTATAATAATATTCAA [XGTACX_site2593]”, the “gcPBM binding intensity (ln)” value is 9.53 ± 0.35.

For “AATTTTATTTAATTTTTTTGGGAAATGATAAAATTT [CACACA_negctrl_site934]”, the “gcPBM binding intensity (ln)” value stood at 7.43 ± 0.45.

With “TTATTTTATTTTTTTGTGCACATATATATTTATAAA [GTGCAC_site9615]”, the “gcPBM binding intensity (ln)” value is 10.86 ± 0.028.

Take “AAAAAAAAAAAAAAAACACACATACATACATACATA [CACACA_site6125]”: the “gcPBM binding intensity (ln)” value worked out at 8.66 ± 0.47.

Consider “TTTTTTTTTTTTTTTGCACACACCATATTTATAGAA [CACACA_site3310]”, for which the “gcPBM binding intensity (ln)” value turned out to be 9.63 ± 0.49.

For “AGAAAAGTGATATATACACACTTATATTTATTTATA [CACACA_site7350]”, the “gcPBM binding intensity (ln)” value was 7.58 ± 0.49.

As for “TATTGTCTATAATAAACACACAATATTAAAAATATA [CACACA_site6624]”, the “gcPBM binding intensity (ln)” value came to 7.55 ± 0.39.

For the sequence “ATCTTTCCTATTTGTAGTACAAAAAAAAAAAAAAAA [XGTACX_site5485]”, the “gcPBM binding intensity (ln)” value came out at 8.23 ± 0.38.

For the sequence “TTAAATGATGTAAACACACACATATACATTATTATA [CACACA_site3162]”, the “gcPBM binding intensity (ln)” value was determined as 7.66 ± 0.48.

Consider “TTTTATAAGGTGAAAAGTACATATAACTTATTTTAC [XGTACX_site5572]”, for which the “gcPBM binding intensity (ln)” value worked out at 7.75 ± 0.65.

With “TATTGTTACTTTATATGTACTAATTAAACATATACA [XGTACX_site6363]”, the “gcPBM binding intensity (ln)” value worked out at 7.87 ± 0.27.

With “TTGTATTATATTGTATTATGTTTAAATGAAAAAAAA [CACACA_negctrl_site662]”, the “gcPBM binding intensity (ln)” value came out at 7.82 ± 0.4.

“AAAAAAAAAAAAAAAAGTACACAAATTTTAAAAATT [XGTACX_site3006]”: the “gcPBM binding intensity (ln)” value is 8.86 ± 0.4.

Turning to “AAAAATACCTTATATATACACACTATGTTTTTCTTT [CACACA_site1192]”, the “gcPBM binding intensity (ln)” value is 7.96 ± 0.63.

As to “AAATATTAGTAACACAGACACACAAAAAAAAAAAAA [CACACA_site2175]”, the “gcPBM binding intensity (ln)” value is 8.03 ± 0.76.

“TGTTTATTTTTAAAAAGTACATATTTAAAAAACTTC [XGTACX_site271]”: the “gcPBM binding intensity (ln)” value turned out to be 7.82 ± 0.11.

On to “TTTTCTAAATAAATAGTGCATTTATTATATATACAT [GTGCAC_site9766]”, for which the “gcPBM binding intensity (ln)” value turned out to be 10.7 ± 0.37.

Consider “CAAAAGAAGGTAAACACACACACACGCATACAAAAA [CACACA_site7724]”, for which the “gcPBM binding intensity (ln)” value turned out to be 8.07 ± 0.55.

As to “ATTTCTCTATCGTAATGTACATAAAAAATGAAAAAA [XGTACX_site1201]”, the “gcPBM binding intensity (ln)” value turned out to be 8.12 ± 0.25.

Take “CAAAACCTTATATGTACACACATATACATCACCCTT [CACACA_site3170]”: the “gcPBM binding intensity (ln)” value is 7.96 ± 0.49.

Turning to “ATAGAATAAAACTATACACACCTATATTTAAACATA [CACACA_site5106]”, the “gcPBM binding intensity (ln)” value is 7.85 ± 0.54.

Turning to “AAATATATATATATATATATATATATATATATATAT [CACACA_negctrl_site677]”, the “gcPBM binding intensity (ln)” value is 9.45 ± 0.81.

“TGATCAGATAGACACACACACAAAAAAAAAAAAAAA [CACACA_site7805]”: the “gcPBM binding intensity (ln)” value stood at 8.12 ± 0.57.

With “AAATGAATAAATAAGACACACACGAAAATAAGTAAA [CACACA_site71]”, the “gcPBM binding intensity (ln)” value was 8.18 ± 0.42.

For “AATTACTACATAAATACATGCATAATTATATATATA [TGCATGCA_site783]”, the “gcPBM binding intensity (ln)” value amounted to 8.52 ± 0.28.

As to “TATCTCTTCATATTGTGTACATATTTTTATTTATTG [XGTACX_site4038]”, the “gcPBM binding intensity (ln)” value was found to be 8.14 ± 0.73.

For the sequence “ATAAAATATAAAAATTGTACGATAATAATAGTAGGA [XGTACX_site8951]”, the “gcPBM binding intensity (ln)” value was 7.8 ± 0.64.

Turning to “AACACTTCTTATTTATGTACTTAATTCCCAACGGAA [XGTACX_site4818]”, the “gcPBM binding intensity (ln)” value was found to be 8.02 ± 0.68.

Regarding “TTGTTCTATTTAAGTAGTACATACACACACATATAC [XGTACX_site8484]”, the “gcPBM binding intensity (ln)” value was determined as 8.18 ± 0.34.

“ACATATATATATTCTACACACTTATAATATAATACA [CACACA_site2461]”: the “gcPBM binding intensity (ln)” value came out at 7.99 ± 0.61.

As to “CACAATACTTTCATCACACATATATATATATATATA [CACACA_site4677]”, the “gcPBM binding intensity (ln)” value was determined as 9.35 ± 0.58.

In the case of “ACTAAACTAATATGTACACACATATAACATTAATTT [CACACA_site7128]”, the “gcPBM binding intensity (ln)” value amounted to 8.16 ± 0.21.

On to “TTTCGTTCATAAAAAAGTACATATGAGCAAAAGGTA [XGTACX_site8936]”, for which the “gcPBM binding intensity (ln)” value worked out at 8.01 ± 0.22.

With “TATATATATATATATAGTACATATTTATATATGAAA [XGTACX_site8488]”, the “gcPBM binding intensity (ln)” value amounted to 9.2 ± 0.52.

Take “GAATTAAAATAATACGTACACACATGTATAATACAT [CACACA_site1004]”: the “gcPBM binding intensity (ln)” value amounted to 8.18 ± 0.26.

“AAATAATATTTTTTTTTTTTTTTTTTTTTATGTTAT [CACACA_negctrl_site809]”: the “gcPBM binding intensity (ln)” value is 7.29 ± 0.3.

Consider “TGGTAGTATATCATAGAAATCATTGTATAACAAATA [XGTACX_negctrl_site569]”, for which the “gcPBM binding intensity (ln)” value came to 7.51 ± 0.54.

Turning to “AAAAAAAAAAAAAAAACACACAAATCATAAATAAAT [CACACA_site478]”, the “gcPBM binding intensity (ln)” value turned out to be 8.68 ± 0.53.

In the case of “ATAGTCTTAATGACTACACACCTAACTATGCATGCA [CACACA_site5084]”, the “gcPBM binding intensity (ln)” value is 7.65 ± 0.79.

In the case of ATACAGTTGCATATGGTGCACGAATAATACACCTAT, the “gcPBM binding intensity (ln)” value was determined as 11 ± 0.25.

“ATTTTTCTTTTTAATACACACAAAAGTGATACAAAC [CACACA_site3923]”: the “gcPBM binding intensity (ln)” value was found to be 8.13 ± 0.49.

As to “TTTTTTTGTATTTGTTTATTTAATGATAAAATTAAA [CACACA_negctrl_site225]”, the “gcPBM binding intensity (ln)” value is 7.72 ± 0.61.

As to “TGTATTATATATACACAAATATTTATGTGTGTGTTT [XGTACX_negctrl_site475]”, the “gcPBM binding intensity (ln)” value was 7.73 ± 0.41.

As to “ATAATATATACTATATGTACATATCTTTTCCTCTTT [XGTACX_site5553]”, the “gcPBM binding intensity (ln)” value was 7.92 ± 0.67.
